# Hit rate of the full screen: of about 150,000 compounds, about 540 (0.36%) showed an effect of 50% or more. The list shows a part of the results.
# System: Plasmodium falciparum
# Assay: Primary screen in NF54 nanoGlo assay, in single point, at 2uM, 72h; a lower Z score goes with more inhibition
# Assay type: functional, Erythrocyte
# Conditions: timepoint 72 hour
Structure (SMILES),% Inhibition [%],Z score
COc1ccc2c(c1)C(N1CCN(S(=O)(=O)c3ccc(F)cc3)CC1)=Nc1ccc(C)cc1O2,19,-2.35
CO[C@@H]1CN[C@@H](C(=O)Nc2ccc3c(ccn3CC(C)C)c2)C1,3,-0.5
C[C@H](NC(=O)N1CCC(n2cc(-c3cccnc3)nn2)CC1)c1ccccc1,-5,1.04
Cc1cc(NC(=O)C(=O)NC2CC(C)CC(C)(C)C2)n(-c2nc3c(c(=O)[nH]2)CCC3)n1 (stereo unspecified),85,-13.4
CCn1cnc2c1CCN(C(=O)c1nsc3ccc(C)cc13)C2,-13,1.48
CC(=O)Nc1ccc2nc(NC(=O)C3CCCC3)sc2c1,1,-0.11
Cc1c(Cl)cncc1NC(=O)CC1CC2CCC1O2 (stereo unspecified),-1,0.2
COc1ccc(-c2cn3cc(C(=O)N[C@@H](C)CO)nc3c(=O)n2CC2CC2)cc1,-6,0.76
O=C(Nc1ccccn1)c1cnn(Cc2ccccc2)c1,-5,0.62
COC1CCCC1NC(=O)Nc1ncc(Br)cc1C (stereo unspecified),74,-9.34
Cc1cc2c(cc1NC(=O)Nc1ccc3c(c1)OCO3)N(C)S(=O)(=O)N2C,7,-1.06
CCCS(=O)(=O)N1CC(n2cc(C(=O)NCc3ccncc3)nn2)C1,-8,1.63
c1cn([C@H]2CCCN(CC3CC4(CCC4)C3)C2)cn1,6,-0.61
O=C(C[C@@H]1C=CCC1)Nc1ccc2c(c1)CCC(=O)N2,-11,1.64
CC(C)N1CC2(CCN(C(=O)OC(C)(C)C)CC2)OC(=O)C1=O,-6,0.75
CCCNC(=O)CCC(=O)N1CCCn2nc(-c3cccn3C)cc21,3,-0.36
CC(C)(C)OC(=O)N1CC(OCC(=O)N(Cc2ccncc2)C2CC2)C1,-14,1.84
Cc1n[nH]c(C)c1CCc1nc(C2CC2)nn1Cc1c(F)cccc1Cl,-23,2.2
CC[C@H](OC1CCCCC1)C(=O)NCc1noc(-c2ccsc2)n1,31,-3.54
COc1ccc(-c2cc(C(=O)Nc3cc(C)on3)c3ccccc3n2)c(OC)c1,1,-0.16
CCc1ccc(NC(=O)CN2CCc3c(c(=O)c4cc(C)ccc4n3C)C2)cc1,-3,0.29
CCN1CCCC[C@@H]1CNc1nc(C)ns1,-7,1.35

Structure (SMILES),% Inhibition [%],Z score
O=C(c1cnn(Cc2ccccc2)c1)N1CCC[C@@H]1CO,5,-0.66
CCc1nccn1-c1ncnc2ccccc12,2,-0.27
CN1CCN(C(=O)c2cccc(-c3ccc(C#N)cc3)c2)C[C@@H]1CCO,-8,1.17
Cc1nc(-c2cccn2C2CC2)n(-c2ccncc2)n1,-11,2.14
CNC(=O)[C@@H]1CN(Cc2ccc(N3CCCCC3)c(C)c2)CCO1,-13,1.45
Clc1cncnc1NCCCNc1ncncc1Cl,-4,0.4
Cc1cc(NC(=O)Cn2nc(-c3cccc4cccnc34)c3ccccc32)n(C)n1,-7,0.95
CCCCS(=O)(=O)N1CCC[C@H](Oc2nc(C3CC3)nc3c2CCOCC3)C1,-2,0.4
N#Cc1cc(F)cc(F)c1Br,-6,0.95
O=C(NCc1c(F)cccc1Cl)c1ccc(-c2ccc3c(c2)OCCO3)s1,-16,1.42
COc1ccnc(NCCCNc2nccc(OC)n2)n1,-4,0.53
Cc1cc(Cl)ccc1NC(=O)N1CCC[C@H]1c1nnc2n1CCN(C)CC2,30,-3.99
CC1CN(C(=O)Cn2cc(NC(=O)NC3CC=CCC3)cn2)CC(C)O1 (stereo unspecified),-11,1.76
CC1(C)CCC(c2nc(C3(S(C)(=O)=O)CCOCC3)no2)CC1,-5,0.82
Cc1cc(NC(=O)NC2(c3ccc(C#N)cc3)CCOCC2)c2ccccc2c1,-9,1.54
Cc1ccc2c(c1)CCCN2C(=O)[C@H]1CCS(=O)(=O)C1,-3,0.23
O=C1CN(C(=O)c2cscn2)CCN1Cc1ccc2c(c1)OCO2,-11,1.65
c1ccc(-n2nnnc2CN2CCn3ccnc3C2)cc1,-5,1.06
Cc1csc([C@H](C)NC(=O)N(Cc2ccccc2)CC(C)(C)O)n1,-5,0.6
c1cnc(-c2nccn2CCO[C@@H]2CCCCO2)cn1,5,-0.59
CCN1CCN(C(=O)C2(COC)CCC2)CC1(C)C,-7,1.1

# — ChEMBL document CHEMBL4888484, “Replenishing the malaria drug discovery pipeline: Screening and hit evaluation of the MMV Hit Generation Library 1 (HGL1) against asexual blood stage Plasmodium falciparum ,using a nano luciferase reporter read-out” (2022)
